# Assay results from the RNAGym collection of RNA variant scans (doi:10.1093/nar/gkz1192).
# The source gives no read counts; variants with many changes may rest on few reads.
# B1: CPEB3 Ribozyme (parent)
# chain: UAACAGGGGGCCACAGCAGAAGCGUUCACGUCGCAGCCCCUGUCAGAUUCUGGUGAAUCUGCGAAUUCUGCUGUAUAUCUC
# Variants of: B1
# Assay: self-cleavage, relative activity (ratio to wild type); higher = more cleavage; in vitro, sequencing
# How it was run: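 Relative activity compares each variant's cleaved/total read fraction with that of the unmutated ribozyme. To get these fractions, barcoded CPEB3 ribozyme libraries from rounds of error-prone PCR were transcribed with T7 RNA polymerase for 5 hours at 37°C and then given 15 min of DNase I treatment before EDTA was added. The RNAs were reverse transcribed with template switching and sequenced on Illumina, and DNA sequencing linked barcodes to variants. A minimum of 5 reads applied, and three batches were averaged.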
row,Variant,self-cleavage
1,G8U C50U U54C C81A,0.22
2,G8U C62G U76C,0.09
3,G8U C62U G73U,0.05
4,G8U G9A U26C U66C G70U,0.06
5,G8U G9C U26C A28U C29U,0.11
6,G8U G9U C14U U26C C38U A45G,0.06
7,G8U G9U C40G U49C A64U,0.04
8,G8U G10A C11U A65G U78G,0.06
9,G8U G10A U31A A56U,0.05
10,G8U G10A U72C,0.33
11,G8U G19U A21G G33A A47U A57G A65G,0.03
12,G8U G30A A56U U60C,0.05
13,G8U G33A A64G,0.1
14,G8U G33A U51A A77G,0.04
15,G8U G33A U69C,0.1
16,G8U G33C U74C,0.1
17,G8U G36U G55A A77G,0.03
18,G8U G52U A56U,0.15
19,G8U U25A A28U U41C A64G,0.05
20,G8U U25C A45G U66C,0.06
21,G8U U25C A45G U67C,0.06
22,G8U U25C A47G U60A A65G,0.09
23,G8U U25C C32U U41C A45G U60A U78C,0.04
24,G8U U25C C38A A75G U76C,0.04

row,Variant,self-cleavage
1,G8U U25C U26C A28U U54A U78C,0.17
2,G8U U25C U26C A45U U60A A75U,0.05
3,G8U U26A A35G,0.22
4,G8U U26A G63U,0.04
5,G8U U26A U31G U41C U76C,0.12
6,G8U U26A U41C U49C U51C,0.17
7,G8U U26C A64C,0.15
8,G8U U26C U43A A45C C68A,0.04
9,G8U U26C U51C A64U,0.11
10,G8U U31A C50U U51G U60C,0.09
11,G8U U31A C50U U54C C81A,0.08
12,G8U U31C U41C U58C,0.12
13,G8U U31C U60A U72C,0.06
14,G8U U41A U74A,0.16
15,G8U U41C A45U A65U,0.38
16,G8U U41C U43C U54A,0.24
17,G8U U41G U72A,0.11
18,G8U U43A A47G,0.43
19,G8U U43A A47U U48A A56U,0.05
20,G8U U43A A64G U72C,0.04
21,G8U U43A U49A,0.08
22,G8U U43A U69C U76C,0.14
23,G8U U43C A56G A65U,0.05
24,G8U U43C U69A U72A,0.05

row,Variant,self-cleavage
1,G8U U43G A45U,0.04
2,G8U U49C U51A A57G U69A U72A U80A,0.05
3,G8U U49C U72A,0.14
4,G8U U54C A65G,0.06
5,G8U U58C U69C,0.09
6,G8U U67C U74C,0.1
7,G8U U67C U76C,0.3
8,G9A A13C C23A U51A U67C,0.07
9,G9A A13C U31A U41A A56U U69A,0.21
10,G9A A13C U41A U54C A56U,0.25
11,G9A A13G A15G G42C G55A G63A U80C,0.06
12,G9A A13G A21G A28U,0.16
13,G9A A13G C14U A20G U41C A57G,0.2
14,G9A A13G C14U A20G U41C U49C G55A,0.06
15,G9A A13G C62U,0.12
16,G9A A13G G22A,0.3
17,G9A A13G U26A C44A,0.07
18,G9A A13G U48C U67A U80C,0.14
19,G9A A13G U49G,0.39
20,G9A A13G U51A U72A,0.05
21,G9A A13U A18G A21G A28G A35U U74C,0.04
22,G9A A13U A18G A57G U69A A77C,0.05
23,G9A A13U A20U U31A U54C A56G U72G,0.02
24,G9A A13U A56G G61A U78C,0.06

row,Variant,self-cleavage
1,G9A A13U A77U,0.14
2,G9A A13U G16C U25A U49C,0.05
3,G9A A13U G30U G42A U51A U80C,0.41
4,G9A A13U G33A U41A A57U,0.09
5,G9A A13U U67A U78C,0.16
6,G9A A15C C32U A35U U58A U67C,0.04
7,G9A A15G A20G U43C U51C A57G U69A,0.15
8,G9A A15G A35G C38A U67A,0.08
9,G9A A15G A45G U48C G63C U72A,0.04
10,G9A A15G A45G U72G,0.2
11,G9A A15G C39U A45G,0.06
12,G9A A15G G19A A56G,0.06
13,G9A A15G G33A A45C,0.09
14,G9A A15G G33U A64G U72A,0.05
15,G9A A15G U26A A28U U58C,0.06
16,G9A A15U A21G A45C U54C A57G U80A,0.14
17,G9A A15U A28G U43C A45G A56G,0.21
18,G9A A15U A28G U67C U69A U78C,0.04
19,G9A A15U A35U U41A U67A,0.04
20,G9A A15U A57U G63U U78A,0.04
21,G9A A15U G42A,0.06
22,G9A A15U U41C G42C G46U A56U,0.06
23,G9A A18C G24U U43A U48C U54C C71A,0.04
24,G9A A18G A21G U41A G63U,0.07

row,Variant,self-cleavage
1,G9A A18G A21U U31C U51A A65U,0.04
2,G9A A18G A64G,0.1
3,G9A A18G A64U U74C A75U,0.17
4,G9A A18G G22A,0.33
5,G9A A18G U25G C40U U41A A77U,0.13
6,G9A A18G U26A C62U,0.04
7,G9A A18G U26C,0.22
8,G9A A18G U43C U49C U60A,0.05
9,G9A A18G U49C U54C U58C,0.07
10,G9A A18G U67C,0.31
11,G9A A18G U72C,0.28
12,G9A A18U A20G U51A A56U,0.06
13,G9A A18U A21U A64U U66C U78C,0.11
14,G9A A18U A28G U49A U60G U78C,0.05
15,G9A A18U A28U G30A U76C U80C,0.07
16,G9A A18U U25A A28G U58C,0.12
17,G9A A18U U25C U41C U69C A75U,0.05
18,G9A A18U U26C A28G U51C U72A,0.08
19,G9A A18U U26C U31C A47G,0.04
20,G9A A18U U43C,0.07
21,G9A A20G A45C,0.22
22,G9A A20G C23A A47G U60C U76A,0.04
23,G9A A20G G36A U48C,0.21
24,G9A A20G U25A U72C U80C,0.29

row,Variant,self-cleavage
1,G9A A20G U25C U74C,0.07
2,G9A A20G U25C U76C U78C,0.16
3,G9A A20G U26C U49A,0.06
4,G9A A20G U41C G63C U69A U76C U78C,0.05
5,G9A A20G U51C U60A,0.11
6,G9A A20G U76C,0.41
7,G9A A20U U31C A45G A56G G63C,0.04
8,G9A A20U U31C U54C U60A U72A,0.06
9,G9A A20U U43A U48A U51A U74C A75G,0.11
10,G9A A20U U49C G63A,0.15
11,G9A A20U U78C,0.22
12,G9A A21G A57G C62U,0.18
13,G9A A21G G30U G42A U69C U80C,0.13
14,G9A A21G U25C,0.31
15,G9A A21G U26C A35U U67C G70A,0.04
16,G9A A21U C38A,0.17
17,G9A A21U U66C U78C,0.05
18,G9A A28G A47G U76A,0.24
19,G9A A28G A56U U72C U78C,0.04
20,G9A A28G G53U,0.06
21,G9A A28G U31C U43A U72G,0.23
22,G9A A28G U54C A56G A65G U72G A77G,0.21
23,G9A A28U A45U A47C U48C A64G,0.14
24,G9A A28U A65G,0.05

row,Variant,self-cleavage
1,G9A A28U A65G U69C,0.17
2,G9A A28U U41C,0.18
3,G9A A28U U41C U48C U72A U76A,0.05
4,G9A A28U U67C U80C,0.07
5,G9A A35G C38U U51G,1.28
6,G9A A35G U41A U66G,0.06
7,G9A A35U A57G,0.08
8,G9A A35U U58C A77U,0.15
9,G9A A35U U60C,0.11
10,G9A A35U U69C,0.05
11,G9A A35U U80C,0.08
12,G9A A45G C50U U80C,0.33
13,G9A A45G G52A U69C,0.09
14,G9A A45G U49A G52C,0.08
15,G9A A45G U60A U72A,0.12
16,G9A A45U U49C,0.14
17,G9A A47G A57G C59A G70A,0.04
18,G9A A47G G55U A57G U58A U72A,0.05
19,G9A A47G U48C G70A U76A,0.08
20,G9A A47U A56G A57U,0.15
21,G9A A56G A64G U66C,0.05
22,G9A A56G U66C U76C,0.28
23,G9A A56U A64G U67A C68U U76A,0.03
